Results on 44 molecules are retold here after article PMC4336329 (PLoS ONE, 2015).

Among all 310,000 compounds or so, about 14,000 (4.5%) showed an effect of 50% or more. Effects have a minus sign here. The list shows a part of the results.
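Note: peak tail current of the secondary pulse compared with the same well before compound.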

Chain of human ether-à-go-go-related gene (hERG) potassium channel (Q12809 whole entry, looked up): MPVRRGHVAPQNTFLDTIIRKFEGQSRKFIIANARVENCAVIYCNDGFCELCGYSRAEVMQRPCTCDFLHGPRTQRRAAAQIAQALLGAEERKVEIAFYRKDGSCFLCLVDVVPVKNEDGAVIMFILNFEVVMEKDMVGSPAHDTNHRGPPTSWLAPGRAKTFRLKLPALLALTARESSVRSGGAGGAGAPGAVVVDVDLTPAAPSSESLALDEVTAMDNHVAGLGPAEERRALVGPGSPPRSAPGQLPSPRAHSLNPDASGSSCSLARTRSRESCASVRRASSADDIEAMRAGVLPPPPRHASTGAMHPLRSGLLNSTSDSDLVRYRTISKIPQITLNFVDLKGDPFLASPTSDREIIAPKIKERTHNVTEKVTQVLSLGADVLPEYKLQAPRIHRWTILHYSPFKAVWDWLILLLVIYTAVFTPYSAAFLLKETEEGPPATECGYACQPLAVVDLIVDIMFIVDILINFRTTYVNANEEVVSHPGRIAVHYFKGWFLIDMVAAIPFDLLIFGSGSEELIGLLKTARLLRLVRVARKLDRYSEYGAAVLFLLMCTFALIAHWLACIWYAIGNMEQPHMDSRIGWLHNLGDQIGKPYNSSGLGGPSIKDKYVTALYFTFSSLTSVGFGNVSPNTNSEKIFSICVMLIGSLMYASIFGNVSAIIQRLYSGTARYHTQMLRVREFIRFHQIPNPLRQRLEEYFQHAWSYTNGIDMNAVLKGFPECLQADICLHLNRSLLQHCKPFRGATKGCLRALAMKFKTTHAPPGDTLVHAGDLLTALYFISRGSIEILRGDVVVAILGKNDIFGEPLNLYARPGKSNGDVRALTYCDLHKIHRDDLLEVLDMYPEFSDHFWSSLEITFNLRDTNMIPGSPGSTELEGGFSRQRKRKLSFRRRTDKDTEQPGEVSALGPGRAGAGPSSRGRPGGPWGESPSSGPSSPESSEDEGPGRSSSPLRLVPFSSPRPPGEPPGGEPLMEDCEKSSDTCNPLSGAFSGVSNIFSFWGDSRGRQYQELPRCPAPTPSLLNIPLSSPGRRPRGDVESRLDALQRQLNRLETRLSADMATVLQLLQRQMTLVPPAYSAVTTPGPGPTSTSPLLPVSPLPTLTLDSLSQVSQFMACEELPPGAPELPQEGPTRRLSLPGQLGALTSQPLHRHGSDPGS

This test has as its target human ether-à-go-go-related gene (hERG) potassium channel (human, UniProt Q12809). Briefly: primary screen, population patch clamp on CHO cells stably expressing hERG.
Take `Cc1cc(-c2nnc(SCC(=O)Nc3ccccn3)o2)no1`: the “hERG current change (%, negative = inhibition) at 10uM” value is reported as 11.3%. To `CCOC(=O)C1=C(SCC)c2cc3c(n2C1=O)CCCC3` belongs -7.28%; to `O=C(/C=C/c1ccccc1)NNc1ccc(Cl)cc1`, -0.505%; to `COc1ccc(NC(=O)N(CCc2ccccc2)Cc2cc3c(C)cc(C)cc3[nH]c2=O)cc1`, 14%. For the molecule `O=C(Nc1ccc(-n2ccc(C(F)(F)F)n2)cc1)c1cccs1`, the “hERG current change (%, negative = inhibition) at 10uM” value was found to be 13.4%.

Regarding `Cc1ccc(-c2noc(CCC(=O)NCC3CCN(Cc4cccc(C)c4)CC3)n2)cc1`, the “hERG current change (%, negative = inhibition) at 10uM” value is listed as -63.8%. Turning to `Cc1sc(NC(=O)c2ccc(=O)n(C)n2)nc1-c1ccccc1`, the “hERG current change (%, negative = inhibition) at 10uM” value is recorded as -5.43%. With `COc1ccc(NS(=O)(=O)c2ccc(OC)c(NC(=O)CNC(=O)c3ccc(OC)cc3)c2)cc1`, the “hERG current change (%, negative = inhibition) at 10uM” value is recorded as -2.19%. In the case of `COc1cc(/C=N/NC(=O)c2ccc(NC(=O)C3CCCCC3)cc2)ccc1O`, the “hERG current change (%, negative = inhibition) at 10uM” value amounted to 28.6%. To `CC1CCCN(S(=O)(=O)c2ccc(NC(=O)C3CC(=O)N(C(C)(C)C)C3)cc2)C1` (centres unmarked) belongs -1.85%; to `CCC(SC1=NCCS1)C(=O)Nc1nnc(-c2ccccc2OC)s1` (centres unmarked), 4.08%; to `CCOc1ccccc1C1C(C#N)=C(N)SC(N)=C1C#N`, 13.5%. As for `COc1cc(NC(=O)COC(=O)CC(C)(C)C)c(C)cc1[N+](=O)[O-]`, the “hERG current change (%, negative = inhibition) at 10uM” value is -28.4%. For `COc1ccc(N2C3=[N+](CCCC3)CC2(C)O)cc1.[Br-]` (centres unmarked), the “hERG current change (%, negative = inhibition) at 10uM” value is -3.94%. `CCCCn1c(N)c(N(CCOC)C(=O)c2cccc(-n3cnnn3)c2)c(=O)[nH]c1=O`: the “hERG current change (%, negative = inhibition) at 10uM” value is given as -4.49%.

For `Cc1cccc(N2CC(C(=O)Nc3nnc(SCCN4CCOCC4)s3)CC2=O)c1` (centres unmarked), the “hERG current change (%, negative = inhibition) at 10uM” value is on record as 0.559%. To `CC(=O)Nc1ccc2c(c1)nc(CCNC(=O)c1ccco1)n2C` belongs 14%; to `COc1cc2ccccc2cc1C(=O)N(CCN(C)C)c1nc2c(F)cc(F)cc2s1.Cl`, -10.1%. For `CCOC(=O)c1[nH]cnc1C(=O)Nc1cccc(Cl)c1`, the “hERG current change (%, negative = inhibition) at 10uM” value was determined as 15.9%. To `CCN(CC)S(=O)(=O)c1cc(NC(=O)CN2CCN(c3ccccn3)CC2)ccc1C` belongs -24.9%; to `Cc1cc(SCc2ccc(Cl)cc2)nc(=O)[nH]1`, 10.7%; to `Cc1c(CCOC(=O)c2cc([N+](=O)[O-])cc([N+](=O)[O-])c2)sc[n+]1CC(=O)c1ccccc1.[Cl-]`, 5.96%. For `Cc1ccc(NC2c3ncccc3C(=O)N2Cc2ccc(F)cc2)cc1` (centres unmarked), the “hERG current change (%, negative = inhibition) at 10uM” value is given as -30.9%. With `COc1cc(OC)cc(C(=O)N2CCN(C(=O)c3ccc(-c4ccccc4)cc3)CC2)c1`, the “hERG current change (%, negative = inhibition) at 10uM” value is recorded as -43.1%.

Take `COc1ccc(-c2cn(CCc3c[nH]c4ccccc34)nn2)cc1`: the “hERG current change (%, negative = inhibition) at 10uM” value was determined as 1.23%.

Consider `S=c1nc(COc2ccccc2)[nH]c2ccccc12`, for which the “hERG current change (%, negative = inhibition) at 10uM” value is listed as 8.97%. For the molecule `Cc1ncoc1C(=O)NC1CC(C)(C)Cc2c1cnn2-c1ccccc1` (centres unmarked), the “hERG current change (%, negative = inhibition) at 10uM” value is on record as -20.5%. To `COc1ccc(/C(=N\O)c2nccc3cc(OC)c(OC)cc23)cc1OC` belongs 13.4%; to `Nc1nnnn1/N=C/c1ccc(O)cc1`, 14.7%; to `Cc1ccc2c(c1)c1c(n2CCc2ccc(C)nc2)CCN(C)C1`, -15.8%.

For the molecule `Cc1ccc(NC(=O)CCS(=O)(=O)c2ccc3c(c2)NC(=O)C(C)S3)cc1Cl` (centres unmarked), the “hERG current change (%, negative = inhibition) at 10uM” value came out at 17.3%. As for `CCCCCC(=O)N1CC2(CC(c3cccc(NC(=O)CC(c4ccccc4)c4ccccc4)c3)=NO2)C[C@@H]1C(N)=O` (some centres unmarked), the “hERG current change (%, negative = inhibition) at 10uM” value is on record as 11.4%. Take `Cc1cnc2c(c1)C(=O)c1ccccc1-2`: the “hERG current change (%, negative = inhibition) at 10uM” value stood at 13.6%. In the case of `Oc1ccc2ccccc2c1C=NCc1ccccc1`, the “hERG current change (%, negative = inhibition) at 10uM” value is 2.02%. On to `CCCc1cc(N2CCCC2)n2nc(C)c(-c3ccccc3)c2n1`, for which the “hERG current change (%, negative = inhibition) at 10uM” value is recorded as 8.36%.

Consider `Cc1ccc(NC(=O)c2cnccn2)cc1C`, for which the “hERG current change (%, negative = inhibition) at 10uM” value came to 21.9%. `CCCc1nnc(NC(=O)CCC(=O)NCc2ccc(OC)cc2)s1`: the “hERG current change (%, negative = inhibition) at 10uM” value is 10.4%. `COc1ccc(OC(=O)NCCc2ccccc2)cc1`: the “hERG current change (%, negative = inhibition) at 10uM” value was 4.1%. As for `CCC1CCCCN1C(=O)CN1C(=O)c2ccccc2S1(=O)=O` (centres unmarked), the “hERG current change (%, negative = inhibition) at 10uM” value is reported as -2.42%. For the molecule `CC(=O)C1=C(C)NC2(O)c3ccccc3C(=O)C12O` (centres unmarked), the “hERG current change (%, negative = inhibition) at 10uM” value is -4%. On to `O=C(C1CC1)N1CCN(Cc2ccccc2)CC1`, for which the “hERG current change (%, negative = inhibition) at 10uM” value is -32.1%.

Turning to `COc1ccc(NC(=O)CSCC(=O)N(C)CC(=O)Nc2ccc(Cl)c(C(F)(F)F)c2)cc1`, the “hERG current change (%, negative = inhibition) at 10uM” value was -68.6%. Consider `O=C(c1cccc(C(=O)N2CCN(c3ncccn3)CC2)c1)N1CCN(c2ncccn2)CC1`, for which the “hERG current change (%, negative = inhibition) at 10uM” value was found to be 0.889%. Take `CCOC(=O)C1CCN(C2=C(NS(=O)(=O)c3ccc(Cl)cc3)C(=O)c3ccccc3C2=O)CC1`: the “hERG current change (%, negative = inhibition) at 10uM” value is given as -44.5%.
